The nature of this test: qHTS drug screen for cell cycle checkpoint inhibitors in PARPi-resistant BRCA-mutant ovarian cancer cell lines. (AID 1963452). To be noted: PEO1/OlaR viability, CellTiter-Glo luminescence, 96 h. In short, it runs like this:
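PEO1, PEO4 and PEO1/OlaR ovarian cancer cells, 600 per well, exposed 96 h at 37C to a dilution series. Viability read by CellTiter-Glo luminescence, normalized to DMSO and empty wells; activity summarized as Z-AUC.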
On the technique in general: In qHTS, concentration-response curves come from the screen itself.

[1] abbreviates: measured here: PEO1 parental viability.

The term AC50 denotes the concentration giving half of the maximal activity seen.

This is one part of the list. Shown are side measurements of this screen, not its main read-out; they come without a call. Potencies come from curve fits of mixed quality, noted in brackets.
Tags give direction and shape of the fitted curve.

As for `CC1(C)CC[C@]2(NC(=O)C(C)(F)F)CC[C@]3(C)[C@H](C(=O)C=C4[C@@]5(C)C=C(C#N)C(=O)C(C)(C)[C@@H]5CC[C@]43C)[C@@H]2C1`, the AC50 is 1230 nM [falling, full curve] under setting [1] and 1550 nM [falling, partial curve, poor fit] (measured here: PEO4 viability).

Regarding `COC(=O)[C@]12CCC(C)(C)C[C@H]1[C@H]1C(=O)C=C3[C@@]4(C)C=C(C#N)C(=O)C(C)(C)[C@@H]4CC[C@@]3(C)[C@]1(C)CC2`, the concentration at half-maximal activity (AC50) reads like this: under setting [1], 1230 nM [falling, full curve]; (measured here: PEO4 viability) 776 nM [falling, full curve].
